The campaign covered roughly 48,000 compounds. About 550 (1.1%) were called active. Not shown: some 4% with an inconclusive outcome. Rule as the data show it: active = potency below about 15 µM; inconclusive = mostly about 16 µM to 33 µM; inactive = weaker than that. The list shows a part of the results. Some results are limits rather than exact numbers.
Potency is read from the fitted curve at half-maximal effect.

In the assay the target is Lysosomal acid glucosylceramidase (Homo sapiens) (UniProt P04062). The assay can be described thus: Glucocerebrosidase.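 Also: the screen sought inhibitors.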 The following applies: purified enzyme, resorufin glucoside fluorescence (screen aimed at inhibitors), 20 min; series mostly up to 77 µM. The procedure, abridged: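 Compounds titrated against 0.2 nM normal enzyme, 30 uM resorufin beta-D-glucopyranoside substrate, citrate/phosphate buffer with taurocholate and tween-20, pH 5.9. Reaction ran 20 min at room temperature; fluorescence (Ex 548/Em 600) gave AC50.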
Chain of UniProt P04062 (P04062 whole entry, looked up): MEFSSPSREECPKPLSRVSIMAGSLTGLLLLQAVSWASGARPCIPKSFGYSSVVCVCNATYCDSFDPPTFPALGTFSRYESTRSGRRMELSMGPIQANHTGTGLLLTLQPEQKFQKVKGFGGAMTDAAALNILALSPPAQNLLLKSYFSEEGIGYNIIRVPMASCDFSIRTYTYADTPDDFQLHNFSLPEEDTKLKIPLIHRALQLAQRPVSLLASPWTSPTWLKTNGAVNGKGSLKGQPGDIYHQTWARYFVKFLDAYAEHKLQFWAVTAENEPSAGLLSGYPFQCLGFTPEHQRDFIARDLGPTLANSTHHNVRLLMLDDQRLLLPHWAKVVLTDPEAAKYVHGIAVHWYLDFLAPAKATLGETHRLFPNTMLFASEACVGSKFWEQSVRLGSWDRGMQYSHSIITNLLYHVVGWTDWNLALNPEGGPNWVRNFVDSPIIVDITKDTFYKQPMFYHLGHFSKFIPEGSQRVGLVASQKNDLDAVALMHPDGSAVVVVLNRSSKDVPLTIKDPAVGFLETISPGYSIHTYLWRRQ
Regarding `COc1ccc(-c2nc(-c3ccccc3)no2)c(OC)c1`, the Potency was inactive: > 76.9 µM.

As to `CNC(=O)CN(C)S(=O)(=O)c1ccc(OC)c(Cl)c1`, the Potency was inactive: > 76.9 µM. The value for `COC(=O)c1cccc(NC(=O)c2nn(C)c(=O)c3ccccc23)c1` was inactive: > 76.9 µM; that for `CCN(c1ccccc1)S(=O)(=O)c1cccc(C(=O)O)c1` was inactive: > 76.9 µM; that for `N#Cc1nc(-c2ccco2)oc1NCc1ccc(F)cc1` was inactive: > 76.9 µM. With `COc1ccc(C(OC(=O)c2ccco2)C(=O)NCc2ccco2)cc1` (configuration not stated), the Potency is inactive: > 76.9 µM. The value for `COc1ccc(CCNC(=O)CCn2c(=O)[nH]c3cc(OC)c(OC)cc3c2=O)cc1OC` was inactive: > 76.9 µM; that for `COc1ccc(OC)c(-n2nnnc2SCC(=O)Nc2ccc3c(c2)OCCO3)c1` was inactive: > 76.9 µM. Next, `CSc1nc(NCc2ccco2)c2c3c(sc2n1)CN(C)CC3`: inactive: > 76.9 µM; `COc1ccc(C(=O)N(CN2CCCC2=O)c2ccc(C)cc2)cc1`: inactive: > 76.9 µM; `Cc1ccc(-c2nc3ccccc3o2)cc1NC(=O)c1ccc2c(c1)OCO2`: inactive: > 76.9 µM.

As for `COC(=O)C1=C(NC(=O)c2cccc(C)c2)CCS1`, the Potency was inactive: > 76.9 µM. Next, `CCC(=O)c1cn(CC(=O)NCC2CCCO2)c2ccccc12` (configuration not stated): inactive: > 76.9 µM. As to `CN(C)c1nc(OCC(=O)NC(C)(C)C)nc(N(C)C)n1`, the Potency is inactive: > 76.9 µM. The value for `Cc1ccc(Cn2ncc3c(N4CCN(c5ccccc5C)CC4)ncnc32)cc1` was inactive: > 76.9 µM; that for `O=C(NCC1COc2ccccc2O1)c1ccccc1` (configuration not stated) was inactive: > 76.9 µM. On to `CCc1c(C)nc2ncnn2c1N1CCC(C(=O)Nc2ccc(C)cc2)CC1`, for which the Potency was inactive: > 76.9 µM.

In the case of `O=C1CC(c2ccc(F)cc2)Cc2nc(N3CCN(c4ccccc4)CC3)ncc21` (configuration not stated), the Potency is inactive: > 76.9 µM. The value for `COc1cc(OC)cc(C(C(=O)NCc2ccccc2)N(Cc2ccco2)C(=O)c2ccno2)c1` (configuration not stated) was inactive: > 76.9 µM; that for `CN=C1c2ccccc2CN1c1cccc(C(=O)OC)c1` was inactive: > 76.9 µM; that for `CN(C)S(=O)(=O)c1cccc(C(=O)NCCc2ccccc2)c1` was inactive: > 76.9 µM. The value for `COc1cccc(-c2nn(-c3ccccc3)cc2C(=O)O)c1` was inactive: > 76.9 µM.

In the case of `Cc1ccc(C(=O)CSc2ncn[nH]2)cc1`, the Potency was inactive: > 76.9 µM. On to `CC(=O)NCCn1ccc2ccccc21`, for which the Potency was inactive: > 76.9 µM. For `CCOc1ccc(-c2nc(CSc3nncs3)cs2)cc1OC`, the Potency was inactive: > 76.9 µM. Next, `CN(C)S(=O)(=O)c1ccc(N2CCN(S(=O)(=O)c3ccc(F)cc3)CC2)c(Cl)c1`: inactive: > 76.9 µM. Next, `COc1ccc(OC)c(S(=O)(=O)N(C)CC(=O)N2CCN(c3ccccc3)CC2)c1`: inactive: > 76.9 µM; `Cc1ccc(NC(=O)CSCc2c(C)noc2C)cc1C`: inactive: > 76.9 µM. With `O=C(OCc1nc2ccccc2s1)c1cccs1`, the Potency was inactive: > 76.9 µM. Next, `CCOC(=O)c1cnc2c(-c3ccccc3)cnn2c1N`: inactive: > 76.9 µM. For the compound `CCOC(=O)CSc1nc2cc(C(=O)N3CCC(C(N)=O)CC3)ccc2c(=O)n1-c1ccccc1`, the Potency was inactive: > 76.9 µM. The value for `CN(C(=O)COc1ccc(C(C)(C)C)cc1)C1CCS(=O)(=O)C1` (configuration not stated) was inactive: > 76.9 µM. The value for `CCOc1ccc2nc(C)cc(C(=O)O)c2c1` was inactive: > 76.9 µM; that for `CC1CCN(c2nc3c(c(=O)n(C)c(=O)n3C)n2Cc2ccccc2)CC1` was inactive: > 76.9 µM; that for `O=C(Cn1cnc2c(nnn2Cc2ccc(Cl)cc2)c1=O)N1CCCc2ccccc21` was “inactive”. Next, `O=c1c(C(c2nnnn2C2CCCCC2)N2CCCCC2)coc2ccc(Cl)cc12` (configuration not stated): inactive: > 76.9 µM; `CCOC(=O)N1CCN(c2c(-c3ccccc3)c3cc(Cl)ccc3[nH]c2=O)CC1`: inactive: > 76.9 µM; `Cc1ccccc1NC(=O)C1CCCN(S(=O)(=O)c2c(C)noc2C)C1` (configuration not stated): inactive: > 76.9 µM. Consider `Cn1c(N2CCN(C(=O)C34CC5CC(CC(C5)C3)C4)CC2)nc2ccccc21`, for which the Potency is inactive: > 76.9 µM. Next, `CCOC(=O)N=S(N)(=O)c1ccc(Cl)cc1` (configuration not stated): inactive: > 76.9 µM; `O=C(CCC1CCCC1)NCc1ccccn1`: inactive: > 76.9 µM. For the compound `CCn1cc(C(=O)NCCCOC(C)C)c2cc(OC)c(OC)cc2c1=O`, the Potency was inactive: > 76.9 µM.

In the case of `Cc1ccc(-c2nnn(CC(=O)N(Cc3ccccc3)C(C(=O)NC3CCCC3)c3ccncc3)n2)o1` (configuration not stated), the Potency was inactive: > 76.9 µM. The value for `CS(=O)(=O)N1CCCC(C(=O)NCCCN2CCC(Cc3ccccc3)CC2)C1` (configuration not stated) was inactive: > 76.9 µM.

Take `COc1cccc(NC(C)C(=O)N2CC(C)OC(C)C2)c1` (configuration not stated): the Potency was inactive: > 76.9 µM. On to `COC(=O)c1ccc(C2/C(=C(/O)c3ccc(OC(C)C)cc3)C(=O)C(=O)N2c2cc(C)on2)cc1` (configuration not stated), for which the Potency was inactive: > 76.9 µM.

With `Cc1ccccc1N(CC(=O)NC1CCCC1)C(=O)CS(=O)CC(=O)Nc1ccc2c(c1)OCO2` (configuration not stated), the Potency is inactive: > 76.9 µM. Next, `COc1ccc(C2c3c(oc4ccc(Cl)cc4c3=O)C(=O)N2Cc2ccco2)cc1OC` (configuration not stated): inactive: > 76.9 µM; `COCCCn1c(SCC(=O)N2CCCCC2C)nnc1-c1ccco1` (configuration not stated): inactive: > 76.9 µM. In the case of `Cc1cc(=O)[nH]c2c1c(C)nn2C1CCCC1`, the Potency was inactive: > 76.9 µM. For `O=C(Nc1ccc(Cl)cc1)C(c1ccccc1)N(CCO)CCO` (configuration not stated), the Potency was inactive: > 76.9 µM.

With `Cc1cccc(-c2nc(CN3CCCC(C(=O)NC4CCC(C)CC4)C3)c(C)o2)c1` (configuration not stated), the Potency result is “inactive”.

For `N#Cc1nc(-c2ccco2)oc1N1CCC(C(N)=O)CC1`, the Potency was inactive: > 76.9 µM. Next, `CN(c1ccc(C(=O)N2CCCCC2)cc1)S(=O)(=O)c1ccccc1`: inactive: > 76.9 µM; `COc1cc(CC(=O)Nc2ccc(S(=O)(=O)N(C)C)cc2)cc(OC)c1OC`: inactive: > 76.9 µM.

`CCN1C(=O)/C(=c2\o/c(=C3\C=Cc4ccccc4N3CC)c(=O)n2CC)SC1=S`: the Potency is inactive: > 76.9 µM. Next, `Cc1cc(C)nc(SCCS(=O)(=O)Cc2ccccc2)n1`: inactive: > 76.9 µM.

The values above are taken from PubChem BioAssay AID360 (National Center for Advancing Translational Sciences (NCATS), 2006).
